Measurements from the supplement of paper PMC11417369.
± gives the standard deviation of the averaged measurements. The list shows a part of the results.

system: PfAP2-EXP AP2 domain (GST-tagged); assay: gcPBM binding intensity (ln(normalized median fluorescence intensity)); higher = stronger DNA binding
Method in brief: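 GST-fused DNA-binding domains of P. falciparum, expressed in E. coli, were applied at about 25 μg on average for 1 h to an Agilent 4 × 180k array of primer-extended double-stranded 36-bp intergenic genomic probes and negative controls. Binding intensity is the highest Masliner-normalised natural-log median intensity across replicate spots of either probe orientation, measured with Alexa488 anti-GST antibody and a 488 nm scan.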

Sequence	gcPBM binding intensity (ln)
ATGTATATATTTATGTGTACTTAAATTTTTTTTTGT [XGTACX_site8179]	8.28 ± 0.31
TTTTAATATATAGAGTAACAAATTTGTCTATTAATA [CACACA_negctrl_site1495]	8.41 ± 0.64
TCTTCACCACGTGGAAGTACATAAAAAGATACACAA [XGTACX_site4747]	8.93 ± 0.51
TAATTTAAAAATGAACATATATATGTATGTAAATAT [TGCATGCA_negctrl_site135]	8.98 ± 0.39
ATACATTCTAATACGTGTACATATATATATATATAT [XGTACX_site1881]	10.2 ± 0.28
AATAATATTAACACACGTACAAAAGCAAACAACCAA [XGTACX_site7410]	9.16 ± 0.55
TTTATATTATTATATCTTATTAATTATTTATCATTT [TGCATGCA_negctrl_site73]	8.12 ± 0.47
ATAAAACAAAAACACACACACATACACAAAAAAAAA [CACACA_site3848]	8.55 ± 0.54
TGGGAAAAAATATATGCACACCCCCCAAAAAAAAAA [CACACA_site8696]	11.1 ± 0.35
AATTCTTTATTATATGCACACGTACATATAATATAT [CACACA_site8621]	8.66 ± 0.24
AAAAAATGTTATAAAAGTACATAATTTATCTACCAT [XGTACX_site3035]	8.44 ± 0.12
ATATACTGTATGAAAGCACACATACTTATTACTAAC [CACACA_site9384]	8.45 ± 0.28
TTTTTATATAATTTAACACACATTTCATATAAAAAA [CACACA_site3103]	8.28 ± 0.42
ATGTGAAAATAAGACACACTCAAAAGGTTTATATTA [CACACA_site4595]	8.23 ± 0.4
TTTAAAAAATAATATTGTACTATTCTCCCAATTTCT [XGTACX_site7079]	8.23 ± 0.38
TAACTTTGGAGGAGCTGTACGATTATTTTGATCCTT [XGTACX_site2514]	8.41 ± 0.38
AAAAAATTTCAAATAACACACACTAATATAAATATG [CACACA_site6783]	8.54 ± 0.47
AAGTTTTTTTTTATCACACACAAAAAAAAAAATATA [CACACA_site1362]	8.32 ± 0.45
AAAAAATGAAAAAACTGTACGCAATTTTGTTTTTAT [XGTACX_site2299]	8.55 ± 0.29
AAAAAAAAAAAAAAGTGTACCTTCAAAATAATATTG [XGTACX_site2844]	8.4 ± 0.3
ATAAATATAAAACACACACACATATTATATATATAT [CACACA_site3064]	9.62 ± 0.13
TCTTTCCTTATTAAAACACACAAATACATTATTTAA [CACACA_site2147]	8.48 ± 0.41
CCTTTTTCTACTTTCTCACACATATTAAGAATTATA [CACACA_site5621]	8.87 ± 0.35

Sequence	gcPBM binding intensity (ln)
CTATATATAACCCATGTGCACTTTTTATGTACAATA	9.43 ± 0.085
AAAACGCAGTTTAATATACACACCAAAAAAAAAAAA [CACACA_site3036]	8.33 ± 0.52
CACAAATATATACATACACACATATATACACATATA [CACACA_site8024]	8.47 ± 0.34
TTTGAGATGTGGTGTACACAAAATTAGGTACACATC [CACACA_site5773]	8.92 ± 0.33
ATATATATATATTTATGTACGCATTTATAGACGTAG [XGTACX_site6031]	9.79 ± 0.26
TAAAATATGTCATGGGTGCTTCTTTTTATACCTATG [GTGCAC_site9888]	8.61 ± 0.31
AAAAAAAAAAAATTATGTACATATTATATATAATGG [XGTACX_site2885]	8.65 ± 0.53
AAATATTATAATAATTGTACTATATATACAGTTATT [XGTACX_site1963]	8.34 ± 0.38
TTTTATATTTATTTTTGTACATAAATGATCTCAAAT [XGTACX_site7768]	8.53 ± 0.29
TGTTTTTAAAAATATACACACACAGATATTATATAT [CACACA_site8162]	8.4 ± 0.39
ACTTAAATAATACATACACACATGTACTTACAGAAA [CACACA_site8458]	8.53 ± 0.33
AGAAAAAAAAAAAAAAATAAAAAAATAAATAAATAA [GTGCAC_negctrl_site161]	8.24 ± 0.69
TATGATAACCATAATTGTACAGAATGAAACGTAAAT [XGTACX_site1653]	9.04 ± 0.58
ATATATTTTTCTTTACGTACGAAGCAAAATAACATT [XGTACX_site8145]	8.5 ± 0.38
AAATGAACATATATGTGTACTTATATTTTTCTAAAT [XGTACX_site3388]	8.41 ± 0.28
AATTGTTTTTTTTTCTTATTTTATGTTATACACACA [TGCATGCA_negctrl_site380]	8.78 ± 0.59
AAAAAAAAAAAAAACACATGCAGAAGAAAAAAAATA [TGCATGCA_site545]	9.12 ± 0.23
TCATTAAATGTTTAGGTGCATACTTTAATTTTTAAT [GTGCAC_site9906]	8.56 ± 0.16
AAAAAAAAAAAAAAAGTGCATATATAAATATTGTAT [GTGCAC_site9459]	8.62 ± 0.3
ATTATATAAGTACACAAACAAGTATGAGATTCAAAA [GTGCAC_negctrl_site119]	8.62 ± 0.38
TGTTTTAAACTAATTTGTACATAGTTATTTATATTT [XGTACX_site7196]	8.54 ± 0.46
TATTAATTTCGGGAAGTGCATTATGTTTATAGAATA	8.675 ± 0.021
CCATATATTTGGTATAGTACTTTTTATTTTATTTCA [XGTACX_site8933]	8.66 ± 0.33

Sequence	gcPBM binding intensity (ln)
CCTCATACGAAATATAAACACACATACAATAAATAA [CACACA_site8620]	8.7 ± 0.59
TATGCACTTTAGGGCAGTACGTCAACATTATCTTTA [XGTACX_site3382]	8.26 ± 0.17
TGTTAAAATTATTTGGTGCACTTGTTTTACCTTATT	9.3 ± 0.49
TATATTTATTATAACACACACATATAAATATTATAG [CACACA_site6726]	8.51 ± 0.35
ATTTTTTTCATAGACACACACAATATATCTGTTTCC [CACACA_site3023]	8.83 ± 0.52
ATAAATTTTTTTTTTTTTTTTTTTTTTTTTTTTTTT [CACACA_negctrl_site508]	9.19 ± 0.057
ATATTATTATATATAGTGCATATTATTATTTTTATT	8.645 ± 0.049
CATTATTCTTTTAATATACACACTTTGTCTTTTCGC [CACACA_site2762]	8.61 ± 0.47
TCTCATAGTAAACACACACACACACCCACATATATA [CACACA_site5034]	8.74 ± 0.56
TCTTCTTTTTTTTTTTTGTATTATTATAAATATTAT [CACACA_negctrl_site1668]	8.66 ± 0.38
GAAGTTTTCTTAAAGATGCACTTTTTAAAAATAAAA [GTGCAC_site9941]	8.32 ± 0.17
AAGATAAAATGATGCACACAAAAGGGTGTAATATAT [CACACA_site1706]	8.8 ± 0.41
TTTTTTTTTTTTAATGCACACAATATATAATATGTA [CACACA_site3694]	8.85 ± 0.45
TTTTTTTTTTTTCAATCACACATGTTTTAATTATTT [CACACA_site5532]	8.48 ± 0.58
TCATTTCACAGACACACACACACAAGATATTTCCTT [CACACA_site7774]	8.7 ± 0.45
TGTAATAATATTTATGTGCACATATATTAAACTATA [GTGCAC_site9584]	8.75 ± 0.11
TGTACGTTTTATAACACACACACAAAAAAAAAAAAA [CACACA_site3875]	8.37 ± 0.43
TTTCTTCTTCAATGTTGTACTTTTCTCTTTTCTTAA [XGTACX_site1017]	9.05 ± 0.49
GTTCATAAAAATTTTTGTACCCATAAAATATTCCTC [XGTACX_site8611]	8.76 ± 0.39
TTTTTTTTTTTTAATTGTACTTATTAAAAAAAGCAA [XGTACX_site8713]	8.25 ± 0.11
GTAGGTGTTTTTGGTTGTACATATAAATATATATAC [XGTACX_site3380]	8.95 ± 0.37
AGATAAATATATTGTAGTACAGGAGCATAAATATAT [XGTACX_site8267]	8.93 ± 0.35
TATTTTCATTATACTACTTCGAAGATACCCTTTTTT [CACACA_negctrl_site256]	8.83 ± 0.54

Sequence	gcPBM binding intensity (ln)
GTTCTTCCTTGTAAATGTACAAATACAAAATGTTCC [XGTACX_site6738]	8.96 ± 0.45
TATAAACATTAAAGGTGTACAATTTAATTTCAATTT [XGTACX_site2944]	8.41 ± 0.37
ATATCATAAAAAATGTGTACATATATGAACATATAA [XGTACX_site2239]	8.64 ± 0.24
TTAAGATCCTAAAAAACACACAATTGCGAATAATAA [CACACA_site6005]	8.76 ± 0.54
GATATATATGTTCACACACACATGGAAATATATATA [CACACA_site4371]	8.62 ± 0.4
GGAAATTAACAGAACACAATGTAACAATTTCTAACA [CACACA_negctrl_site1250]	8.63 ± 0.51
TTTTTTTTTTTTTTTTTTTATGTATACATATTTATA [TGCATGCA_negctrl_site234]	8.28 ± 0.43
TCATTTTAAAAAAATAGTACTTTAAGAAACTTTTAT [XGTACX_site602]	8.02 ± 0.38
GATATTCTATAAAAAAGTACAAATATTTTAAAAAAT [XGTACX_site2177]	8.55 ± 0.38
TAAATCCTTTACAACACACACACAAAAAAAAAAAAA [CACACA_site643]	8.31 ± 0.48
AGCATTAATTATTTCACACATATATATATATATATA [CACACA_site4889]	10.1 ± 0.41
ATCAGTGATTAGGTTATATATAAAAATGAACTAATA [GTGCAC_negctrl_site647]	8.59 ± 0.54
ATATTCATGTTGATATGTACTTATTCTATATTGAAT [XGTACX_site8347]	8.46 ± 0.46
TATATATATATATATATACACACTTGTGCAGAATAT [CACACA_site2216]	10.2 ± 0.41
ATATTTATATATAGTAGTACTTTCAATAATTTAAAT [XGTACX_site7276]	8.39 ± 0.3
AATACAAGAACTGACACACATACATACTACATTTTA [CACACA_site2829]	8.7 ± 0.42
AAAGAAAGAAGACACACACACATATATAAATATCAA [CACACA_site7715]	8.66 ± 0.59
TCTTAAAATATATAGGTGCAAAAAAAAAAAAAAAAA	8.31 ± 0.13
TATGATATTTATATGCGTACTGAAGTATGCCTATTT [XGTACX_site6133]	8.56 ± 0.38
AAAAAATTAAAAATACGTACATATATACATATATAT [XGTACX_site4621]	8.43 ± 0.2
